Source: paper PMC4336329 (PLoS ONE, 2015)
About 2,200 (0.71%) of roughly 310,000 compounds showed an effect of 50% or more. The effect is printed as a negative number. This is one part of the list.

target: human ether-à-go-go-related gene (hERG) potassium channel (human, UniProt Q12809); test: primary screen, population patch clamp on CHO cells stably expressing hERG
Sequence (Q12809 whole entry, looked up): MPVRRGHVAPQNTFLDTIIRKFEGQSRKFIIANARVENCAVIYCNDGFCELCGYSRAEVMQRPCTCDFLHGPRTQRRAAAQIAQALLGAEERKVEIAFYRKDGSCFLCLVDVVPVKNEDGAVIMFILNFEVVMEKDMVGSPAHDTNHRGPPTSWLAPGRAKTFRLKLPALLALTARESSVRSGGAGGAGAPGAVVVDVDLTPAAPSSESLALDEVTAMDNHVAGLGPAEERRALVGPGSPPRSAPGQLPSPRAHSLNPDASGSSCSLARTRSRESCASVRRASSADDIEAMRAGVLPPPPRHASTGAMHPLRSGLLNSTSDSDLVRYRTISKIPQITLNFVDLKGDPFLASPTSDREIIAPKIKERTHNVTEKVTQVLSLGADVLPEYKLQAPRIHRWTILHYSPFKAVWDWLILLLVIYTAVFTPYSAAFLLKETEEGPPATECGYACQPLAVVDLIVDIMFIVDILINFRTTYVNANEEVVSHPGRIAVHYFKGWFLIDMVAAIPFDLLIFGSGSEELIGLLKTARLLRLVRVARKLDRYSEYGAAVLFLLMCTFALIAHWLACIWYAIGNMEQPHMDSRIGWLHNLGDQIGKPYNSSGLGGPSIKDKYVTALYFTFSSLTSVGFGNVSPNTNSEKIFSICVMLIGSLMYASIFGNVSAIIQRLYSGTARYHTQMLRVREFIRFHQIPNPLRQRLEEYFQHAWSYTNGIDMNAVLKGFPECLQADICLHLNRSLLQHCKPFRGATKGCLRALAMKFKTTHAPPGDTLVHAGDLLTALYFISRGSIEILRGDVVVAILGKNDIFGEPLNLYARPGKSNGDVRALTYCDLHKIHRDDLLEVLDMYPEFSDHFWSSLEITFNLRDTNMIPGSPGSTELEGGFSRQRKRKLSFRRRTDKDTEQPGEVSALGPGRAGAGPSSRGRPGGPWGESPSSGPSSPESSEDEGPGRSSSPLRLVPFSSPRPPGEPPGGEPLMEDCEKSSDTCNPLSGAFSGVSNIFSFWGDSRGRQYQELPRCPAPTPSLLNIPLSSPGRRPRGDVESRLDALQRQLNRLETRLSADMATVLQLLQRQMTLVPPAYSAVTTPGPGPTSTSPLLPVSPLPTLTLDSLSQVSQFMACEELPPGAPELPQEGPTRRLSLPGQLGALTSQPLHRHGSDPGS

Which “hERG current change (%, negative = inhibition) at 1uM” value does the source give for `CCOC(=O)CCC(=O)c1c(C)oc2ccc(OC)cc12` here?
The value was -18.4%.

`Cc1c(N2C(=O)c3ccc4c5c(ccc(c35)C2=O)CC4)c(=O)n(-c2ccccc2)n1C` was tested. Which “hERG current change (%, negative = inhibition) at 1uM” value did it give?
Its value is 19.1%.

With `Nc1ccccc1-c1nc2ccccc2[nH]1` as the compound, how does the “hERG current change (%, negative = inhibition) at 1uM” value read?
The value was 1.2%.

Which “hERG current change (%, negative = inhibition) at 1uM” value does the source give for `CC[C@@]12C(=O)N(c3ccccc3)C(=O)N1[C@H](c1cccc(C)c1)[C@@H]1C(=O)N(Cc3ccccc3)C(=O)[C@@H]12` here?
Its value is 20.5%.

`Cc1ccc2nnn(Cc3cccc(C(C)(C)C)c3O)c2c1` was tested. Which “hERG current change (%, negative = inhibition) at 1uM” value did it give?
The value was 11.1%.

Which “hERG current change (%, negative = inhibition) at 1uM” value does the source give for `Cn1nccc1C(=O)N1CCCC(C(=O)c2ccc(Oc3ccccc3)cc2)C1` (stereo not shown) here?
Its value is 7.34%.

How did the “hERG current change (%, negative = inhibition) at 1uM” value turn out when `Cc1noc(C)c1CSc1nc2cc(S(=O)(=O)N3CCOCC3)ccc2o1` was run?
Its value is 1.65%.

For `COc1ccccc1NC(=O)C1CCOC1=O` (stereo not shown), which “hERG current change (%, negative = inhibition) at 1uM” value is on record?
The value was 13.1%.

With `CCN1CCN(c2ccc(S(=O)(=O)N3CCOCC3)cc2NC(=O)C(C)Oc2ccc(Cl)cc2)CC1` (stereo not shown) as the compound, how does the “hERG current change (%, negative = inhibition) at 1uM” value read?
Its value is -31.9%.

How did the “hERG current change (%, negative = inhibition) at 1uM” value turn out when `COc1ccccc1CCC(=O)N1CCN(C(=O)c2ccccc2)CC1` was run?
The value was 9.3%.

`O=C(CCCC(=O)N(c1ccc2c(c1)OCCO2)C(C(=O)NC1CCCCC1)c1ccc(F)cc1)Nc1ccccn1` (stereo not shown) was tested. Which “hERG current change (%, negative = inhibition) at 1uM” value did it give?
Its value is 13.8%.

How did the “hERG current change (%, negative = inhibition) at 1uM” value turn out when `CC(C)(C)C(=O)Nc1ccc(NC(=O)C(C)(C)C)cc1` was run?
The value was 4.17%.

`C=CCc1cccc2cc(C(=O)O)c(=O)oc12` was tested. Which “hERG current change (%, negative = inhibition) at 1uM” value did it give?
The value was -3.89%.

For `CC1CCCC(C)N1CCCNC(=O)Cn1ncc2c3ccccc3n(C)c2c1=O` (stereo not shown), which “hERG current change (%, negative = inhibition) at 1uM” value is on record?
Its value is 10%.

For `O=C(N/N=C1/SCC(=O)N1Cc1ccco1)c1ccccc1F`, which “hERG current change (%, negative = inhibition) at 1uM” value is on record?
The value was 13.6%.

`COc1cccc(N=C2SC(CC(=O)Nc3ccccc3)C(=O)N2Cc2ccccn2)c1` (stereo not shown) was tested. Which “hERG current change (%, negative = inhibition) at 1uM” value did it give?
Its value is 1.07%.

`O=C(CCC1CCCCC1)NC1=NCCS1` was tested. Which “hERG current change (%, negative = inhibition) at 1uM” value did it give?
The value was 12.1%.

Which “hERG current change (%, negative = inhibition) at 1uM” value does the source give for `Cc1ccc(CNC(=O)c2cc3c(=O)n4ccccc4nc3n(CC3CCCO3)c2=N)cc1` (stereo not shown) here?
Its value is -85.7%.

`Fc1ccccc1-c1nc(NC2CCCC2)c2ccccc2n1` was tested. Which “hERG current change (%, negative = inhibition) at 1uM” value did it give?
The value was 13.5%.

Which “hERG current change (%, negative = inhibition) at 1uM” value does the source give for `Cc1ccc(Sc2nnc(Cc3ccccc3)c3ccccc23)cc1` here?
The value was 13.4%.

`Cc1nn(-c2ccccc2)c2c1C(c1cccc([N+](=O)[O-])c1)N(c1ccccc1)C(=O)N2` (stereo not shown) was tested. Which “hERG current change (%, negative = inhibition) at 1uM” value did it give?
Its value is 13.8%.

For `O=C(O)C1CCCN1S(=O)(=O)c1ccc2c(c1)CCC2` (stereo not shown), which “hERG current change (%, negative = inhibition) at 1uM” value is on record?
Its value is -6.93%.

For `CCCN1CCN(C(=O)Cn2cccc2C(=O)c2ccccc2)CC1`, which “hERG current change (%, negative = inhibition) at 1uM” value is on record?
The value was 4.98%.

With `COc1ccc(-c2noc(CSc3nc4sc(C)c(C)c4c(=O)n3-c3ccccc3)n2)cc1OC` as the compound, how does the “hERG current change (%, negative = inhibition) at 1uM” value read?
The value was -0.518%.

`CC(=O)c1cccc(NC(=O)c2cc(=O)[nH]c3ccccc23)c1` was tested. Which “hERG current change (%, negative = inhibition) at 1uM” value did it give?
The value was 7.94%.

For `COC(=O)c1nc2n(n1)C(c1cccc(Cl)c1)C1=C(CC(C)(C)CC1=O)N2` (stereo not shown), which “hERG current change (%, negative = inhibition) at 1uM” value is on record?
Its value is 9.5%.

For `O=C(Cc1ccccc1)Nc1ccc2oc(=O)ccc2c1`, which “hERG current change (%, negative = inhibition) at 1uM” value is on record?
The value was 8.05%.

For `CC(C)(C)NC(=O)C(OC(=O)c1cccs1)c1ccccc1` (stereo not shown), which “hERG current change (%, negative = inhibition) at 1uM” value is on record?
Its value is 37.1%.

How did the “hERG current change (%, negative = inhibition) at 1uM” value turn out when `O=C(CCS(=O)(=O)c1ccccc1)NC1CCCC1` was run?
Its value is -8.27%.

`COc1ccccc1CC(=O)N1CCN(c2cccc(Cl)c2)CC1` was tested. Which “hERG current change (%, negative = inhibition) at 1uM” value did it give?
Its value is 1.37%.

How did the “hERG current change (%, negative = inhibition) at 1uM” value turn out when `Cc1sc(NC(=O)Cc2ccc3c(c2)OCO3)nc1-c1ccc2c(c1)CCN2C(=O)c1ccccc1F` was run?
The value was 10.6%.

With `COc1ccc(Nc2nc(C)nc3c2nnn3Cc2ccccc2Cl)c(OC)c1` as the compound, how does the “hERG current change (%, negative = inhibition) at 1uM” value read?
Its value is 13.7%.

For `COc1ccccc1-c1cc(C(=O)NCc2ccc(F)cc2)no1`, which “hERG current change (%, negative = inhibition) at 1uM” value is on record?
Its value is 3.2%.

Which “hERG current change (%, negative = inhibition) at 1uM” value does the source give for `Cc1ccc(N(CC(O)CON=C2c3ccccc3-c3ccccc32)S(C)(=O)=O)cc1` (stereo not shown) here?
Its value is 15.4%.

With `Cc1c(NC(=O)CCSCCc2ccccn2)cccc1[N+](=O)[O-]` as the compound, how does the “hERG current change (%, negative = inhibition) at 1uM” value read?
The value was 7.15%.

`COc1ccc(-c2noc(CN(C(=O)C(C)(C)C)C(C)C)n2)cc1` was tested. Which “hERG current change (%, negative = inhibition) at 1uM” value did it give?
The value was 4.73%.

With `COc1ccc(/C=N/n2cnnc2)cc1Br` as the compound, how does the “hERG current change (%, negative = inhibition) at 1uM” value read?
Its value is 8.82%.

For `CC(C)(C)NC(=O)COC(=O)c1c2c(nc3ccccc13)CCC2`, which “hERG current change (%, negative = inhibition) at 1uM” value is on record?
Its value is 16.7%.

`CCCN(CC(=O)Nc1ccccc1OC)C(=O)c1ccc2[nH]c3c(c2c1)CC(C)CC3` (stereo not shown) was tested. Which “hERG current change (%, negative = inhibition) at 1uM” value did it give?
Its value is 0.531%.

With `CCNC(=S)N/N=C/c1cn(Cc2ccccc2F)c2ccccc12` as the compound, how does the “hERG current change (%, negative = inhibition) at 1uM” value read?
Its value is 7.96%.

For `Cc1cc(C(=O)Nc2c[nH]c(=O)[nH]c2=O)ccc1[N+](=O)[O-]`, which “hERG current change (%, negative = inhibition) at 1uM” value is on record?
The value was 16.6%.

`O=C(N/N=C/c1cccc(O)c1)c1ccc(NC(=O)c2cccc([N+](=O)[O-])c2)cc1` was tested. Which “hERG current change (%, negative = inhibition) at 1uM” value did it give?
The value was 12.6%.

With `Cn1cc(/C=C(\NC(=O)c2ccccc2Cl)C(=O)NCCCn2ccnc2)c2ccccc21` as the compound, how does the “hERG current change (%, negative = inhibition) at 1uM” value read?
Its value is 13.8%.
